# In the antibiotic and cytotoxicity screens of Wong et al. (2023):
# This is one part of the list.
# How the values were obtained:
# HSkMC = human skeletal muscle cells; experiment: cytotoxicity call (relative viability < 0.9); settings: 10 µM
# HepG2 = experiment: cytotoxicity call (relative viability < 0.9); settings: 10 µM
# S. aureus RN4220 = experiment: growth inhibition call (relative growth <= 0.2); settings: 50 µM
SMILES,cytotoxicity call (HSkMC),cytotoxicity call (HepG2),growth inhibition call (S. aureus RN4220)
O=S1(=O)CCN(CCc2ccccc2)CC1,inactive,inactive,inactive
CC(C)NC(=O)N(C)C[C@@H]1Oc2ccc(NS(=O)(=O)c3ccccc3)cc2C(=O)N([C@@H](C)CO)C[C@@H]1C,inactive,inactive,inactive
COc1ccc(S(=O)(=O)Nc2ccc3c(c2)C(=O)N([C@@H](C)CO)C[C@@H](C)[C@@H](CN(C)C(=O)Nc2ccccc2)OCCCC[C@@H](C)O3)cc1,inactive,inactive,inactive
C[C@@H]1CN([C@H](C)CO)C(=O)Cc2cc(NS(=O)(=O)c3ccc(Cl)cc3)ccc2O[C@@H]1CN(C)Cc1ccc(C(=O)Nc2ccccc2N)cc1,inactive,inactive,inactive
CN(C)CC#Cc1ccc([C@@H]2[C@H]3CN(C(=O)CN(C)C)CC(=O)N3[C@H]2CO)cc1,inactive,inactive,inactive
Cc1ccc(S(=O)(=O)Nc2ccc3c(c2)C(=O)N([C@@H](C)CO)C[C@H](C)[C@@H](CN(C)C(=O)Nc2ccc(F)cc2)OCCCC[C@@H](C)O3)cc1,inactive,inactive,inactive
C[C@@H]1CCCCO[C@@H](CN(C)Cc2ccc(C(F)(F)F)cc2)[C@H](C)CN([C@H](C)CO)C(=O)c2cc(NS(=O)(=O)c3ccccc3)ccc2O1,inactive,inactive,inactive
C[C@@H]1CN([C@@H](C)CO)C(=O)c2cc(NS(=O)(=O)c3cccs3)ccc2O[C@@H](C)CCCCO[C@H]1CN(C)S(=O)(=O)c1ccc(Cl)cc1,inactive,active,inactive
C[C@H](CO)N1C[C@H](C)[C@H](CN(C)C(=O)Nc2ccccc2)Oc2ccc(NC(=O)Nc3ccc(C(F)(F)F)cc3)cc2C1=O,active,active,inactive
O=C(C[C@H]1C[C@@H]2c3cc(NC(=O)Nc4ccc(C(F)(F)F)cc4)ccc3O[C@@H]2[C@@H](CO)O1)NCc1ccc(Cl)cc1,inactive,inactive,inactive
C=CN1CCCC1=O,inactive,inactive,inactive
C[C@@H]1CN([C@@H](C)CO)C(=O)c2cc(Br)cnc2O[C@@H]1CN(C)C(=O)Nc1ccc(F)cc1,inactive,inactive,inactive
COc1ccc(S(=O)(=O)N(C)C[C@@H]2Oc3ccc(NC(=O)Cc4ccccc4)cc3CC(=O)N([C@H](C)CO)C[C@@H]2C)cc1,inactive,active,inactive
C[C@@H]1CN([C@@H](C)CO)C(=O)Cc2cc(NC(=O)Cn3cnnn3)ccc2O[C@H]1CN(C)S(=O)(=O)c1cccs1,inactive,inactive,inactive
C[C@@H]1CCCCO[C@@H](CN(C)CC2CC2)[C@H](C)CN([C@@H](C)CO)C(=O)c2cc(NC(=O)Nc3ccccc3)ccc2O1,inactive,inactive,inactive
